# Reference: PubChem BioAssay AID493208 (National Center for Advancing Translational Sciences (NCATS), 2011)
# About 340 (0.77%) of roughly 44,000 compounds were called active. Not shown: some 5% with an inconclusive outcome. Calls follow the shape of the dose curve; as a rule, active = well fitted inhibition curve with a large enough effect; inconclusive = small, poorly fitted or top-dose-only effect; inactive = flat fitted curve, though single readings scatter. This is one part of the list.
# Assay: Acumen qHTS Assay for Inhibitors of the mTORC1 Signaling Pathway in MEF (Tsc2-/-, p53-/-) Cells: Sytravon;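 also: plate controls were DMSO for no effect and rapamycin for full effect; nearly all actives have a fitted effect of over 50% in size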
# Details: phospho-rpS6 immunofluorescence/PI, 24 h; series mostly up to 38.3 µM; activity change, negative = inhibition: at the top concentration
# Method in brief: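 Immunofluorescence of rpS6 phosphorylation in Tsc2-/-, p53-/- MEFs after 24 h compound exposure, normalized to propidium iodide signal. Activity is expressed as % positive cells, thresholded with 7.5 nM rapamycin.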
row,SMILES,"activity change, negative = inhibition"
1,CCOC(=O)c1cn(CC(=O)Nc2cccc(Cl)c2C)nn1,inactive: -0.641%
2,COc1ccc(N2CCN(c3nc(-c4ccccc4F)nc4ccccc34)CC2)cc1,inactive: -2.93%
3,O=C(CN(c1cccc(Br)c1)S(=O)(=O)c1ccccc1)N1CCc2ccccc2C1,inactive: 18.1%
4,COCCNC(=O)c1c(NC(=O)Cc2coc3cc(C)ccc23)sc2c1CCCC2,inactive: 1.39%
5,CCC(C)NC(=O)c1ccc2c(c1)N(Cc1cccc(Cl)c1)C(=O)c1ccccc1S2=O (stereo not drawn),inactive: -0.48%
6,CCOc1ccccc1NC(=O)C(NS(=O)(=O)c1cccc2nsnc12)c1ccccc1 (stereo not drawn),inactive: -6.59%
7,Cc1nnc(N2CCN(c3ccccc3F)CC2)c2c1nnn2Cc1ccc(F)cc1,inactive: 0.208%
8,COC(=O)c1c(NC(=O)CCCOc2ccc(C)cc2)sc2c1C(C(=O)OC)CC2 (stereo not drawn),inactive: 11%
9,CCc1cccc(CC)c1NC(=O)c1cc(S(=O)(=O)N2CCc3ccccc32)cn1C,inactive: -8.78%
10,Cc1ccc(CN2CCCn3nc(C(=O)NCCN(C)C)cc3C2=O)cc1,inactive: 0%
11,COc1ccc(-c2ccc(NS(=O)(=O)c3ccc(F)c(C(F)(F)F)c3)cc2)nn1,inactive: -20.4%
12,CCOC(=O)c1c(C)[nH]c(C)c1S(=O)(=O)N1CCC(C(=O)NCc2ccccc2)CC1,inactive: 2.4%
13,Cc1ccc(C)c(OCCSc2nc3ccccc3n2CC(=O)N2CCOCC2)c1,inactive: -9.91%
14,COc1ccc2c(c1)c1c(c(=O)n(Cc3ccccc3)c(=O)n1Cc1cc(C)ccc1C)n2C,inactive: 2.09%
15,Cc1nc2ccn(Cc3ccco3)c(=O)c2cc1C(=O)N1CCN(c2ccccc2F)CC1,inactive: 1.35%
16,COc1ccc(NC(=O)Cc2coc3cc(C)cc(C)c23)c(OC)c1,inactive: 0.562%
17,Cc1nn2c(=O)cc(COC(=O)c3ccccc3NC(=O)c3ccccc3C)nc2s1,inactive: 0%
18,COc1cccc(OCc2nc3ccccc3n2CCOc2ccccc2)c1,inactive: -14.3%
19,Cc1ccc(S(=O)(=O)N2CCCC(c3nc4c(nnn4Cc4ccc(OC(F)(F)F)cc4)c(=O)[nH]3)C2)cc1 (stereo not drawn),inactive: 4.07%
20,Cn1nc(-c2ccc(OCC(=O)Nc3ccccc3)cc2)c2ccccc2c1=O,inactive: -13.1%
21,O=C(Cn1c(=O)nc(-c2ccccc2)c2cc(Cl)ccc21)NCc1ccccc1,inactive: 0%
22,COCCNC(=O)c1cc2n(n1)CCCN(Cc1ccc(C)cc1)C2=O,inactive: 26.7%
23,CC(=O)Cn1nnc2sc(-c3ccccc3)cc2c1=O,inactive: 1.63%
24,Cc1c(Cl)cccc1Nc1sc(C(=O)c2ccccc2)c(N)c1S(=O)(=O)c1ccccc1,inactive: -0.179%

row,SMILES,"activity change, negative = inhibition"
1,CN(Cc1ccccc1)C(=O)c1cc2c(=O)n(C)c3ccccc3c2s1,inactive: -14.5%
2,CCOC(=O)N1CCc2c(sc3c2c(=O)n(Cc2ccccc2)c(=O)n3Cc2c(F)cccc2Cl)C1,inactive: 3.4%
3,O=C1CC(c2nc3ccccc3n2Cc2c(F)cccc2Cl)CN1c1cccc(C(F)(F)F)c1 (stereo not drawn),inactive: -13.4%
4,CSc1cccc(N2C(=O)N(Cc3ccc([N+](=O)[O-])cc3)c3ccccc3S2(=O)=O)c1,inactive: -4.73%
5,COc1ccc(NC(=O)CC2C(=O)N(c3ccc(C)cc3)C(=O)N2CCc2ccccc2)cc1 (stereo not drawn),inactive: -2.69%
6,COc1ccc(CC(=O)Nc2c(C(=O)Nc3ccccc3F)oc3ccccc23)cc1,inactive: -13.1%
7,Cc1ccccc1NC(=O)c1sc2nc(-c3ccncc3)ccc2c1N,inactive: -5.34%
8,O=C(CC1C(=O)N(c2ccc(F)cc2)C(=O)N1Cc1cccnc1)Nc1ccc(F)cc1 (stereo not drawn),inactive: -4.84%
9,CCOC(=O)c1ccc(N2C(=O)c3n[nH]c(-c4cccs4)c3C2c2ccc(C)cc2)cc1 (stereo not drawn),inactive: -11.7%
10,CCCCOc1cccc(C(=O)Nc2cc3nn(-c4ccc(F)cc4)nc3cc2C)c1,inactive: -10.1%
11,CCCN(CCC)CCCNC(=O)Cn1ncc2c3ccccc3n(Cc3ccc(F)cc3)c2c1=O,inactive: -5.16%
12,COCCCNC(=O)CCCn1c(=O)c2cccn2c2cccnc21,inactive: -0.415%
13,Cc1nc(C)c(-c2ccc(SCC(=O)Nc3ccccc3F)nn2)s1,inactive: -3.07%
14,Cc1cc2ccccc2n1-c1ccc(C(=O)N2CCCCC2)s1,inactive: 5.91%
15,COc1cccc(CNC(=O)CCNS(=O)(=O)c2cccc3nsnc23)c1,inactive: -15%
16,CCn1cc(S(=O)(=O)c2ccccc2)c(=O)c2cc(C)ccc21,inactive: 0.671%
17,CCOC(=O)c1[nH]c2ccccc2c1NC(=O)c1ccc(OC(C)C)cc1,inactive: -17.7%
18,COc1cc(OC)cc(C(=O)Nc2ccc(S(=O)(=O)Nc3cc(C)nc(C)n3)cc2)c1,inactive: -3.41%
19,COc1ccc(CCN2CC(C(=O)NCCc3ccc(C)cc3)CC2=O)cc1OC (stereo not drawn),inactive: -0.0514%
20,CCCCn1c(COc2cccc(OC)c2)nc2ccccc21,inactive: -27.5%
21,COc1cc(NC(=O)c2cc3c(=O)oc4ccc(C)cc4c3s2)cc(OC)c1OC,inactive: -0.0312%
22,CC(C)(CC(=O)OCC(=O)Nc1ccc(F)c(Cl)c1)CC1=NS(=O)(=O)c2ccccc2N1,inactive: -2.49%
23,CCCc1cc(=O)n2[nH]c(NCc3ccc(CC)cc3)nc2n1,inactive: 4.16%
24,O=C1c2[nH]nc(-c3ccccc3)c2C(c2ccccc2)N1c1cccc(C(F)(F)F)c1 (stereo not drawn),inactive: -7.87%
